# In PubChem BioAssay AID686978 (National Center for Advancing Translational Sciences (NCATS), 2013):
# Among all 420,000 compounds or so, about 64,000 (15%) were called active. This list was built around the results that the source calls inconclusive (neither active nor inactive); the mix of calls is not that of the screen. Calls come from the whole dose curve; as a rule, active = well fitted inhibition curve with a large enough effect; inconclusive = small, poorly fitted or top-dose-only effect; inactive = flat fitted curve, though single readings scatter. No potency is given beside an inconclusive call; the fits are too rough.
# Test: qHTS for Inhibitors of human tyrosyl-DNA phosphodiesterase 1 (TDP1): qHTS in cells in absence of CPT; note: nearly all actives have a fitted effect of over 55% in size
# Conditions: DT40 Tdp1-/- hTDP1 cells, no CPT, ATP luminescence, 48 h; activity change, negative = growth inhibition: at 46.2 µM (top of the series)
# Outline: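 A cellular qHTS used chicken DT40 cells lacking endogenous Tdp1 but carrying stably transfected human TDP1. Compounds were applied without camptothecin, and cell growth kinetics were judged by ATP-dependent luminescence after ≥48 hr.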
# % is set by controls: 0 for no effect and ±100 for the full control effect; potency is the fitted concentration of half-maximal effect; tags give direction and shape of the fitted curve.
Structure (SMILES),Potency,"activity change, negative = growth inhibition"
CCSc1nc2cc(OC)c(OC)cc2c(=O)n1CC,"inconclusive [inhibitor, partial curve]",–
COc1cc2c(cc1NC(=O)COC(=O)[C@@H](NS(=O)(=O)c1ccccc1)C(C)C)oc1ccccc12,"inconclusive [inhibitor, single point]",–
Cc1ccc(S(=O)(=O)NNC(=O)/C=C/c2cccc(F)c2)cc1,"inconclusive [inhibitor, partial curve, poor fit]",–
COc1ccc(CC(=O)Cc2ccc(OC)c(OC)c2)cc1OC,"inconclusive [inhibitor, single point]",–
O=C(O)CC/C(=C\c1ccc(N2CCOCC2)c([N+](=O)[O-])c1)c1nc2ccccc2s1,"inconclusive [inhibitor, single point]",–
CC1(c2ccc(OC(F)F)cc2)NC(=O)N(CC(=O)Nc2cccnc2Cl)C1=O (stereo not given),"inconclusive [inhibitor, single point]",–
CCC(=O)Nc1cc(C(=O)O)ccc1S(=O)(=O)c1ccc(C)cc1,inactive,–
COc1ccc(CCNc2nc(-c3ccc(NC(C)=O)cc3)cs2)cc1OC,"inconclusive [inhibitor, partial curve]",–
NC(=O)CC(NC(=O)c1ccccc1)c1ccc(NCc2ccc(F)cc2)c([N+](=O)[O-])c1 (stereo not given),"inconclusive [inhibitor, partial curve]",–
CCN(CC)C(=O)Cn1cc(C(=O)C(=O)N2CCc3ccccc32)c2ccccc21,"inconclusive [inhibitor, single point]",–
CC(C)c1ccc(NC(=O)C2Cc3c(-c4ccc5c(c4)OCO5)ccnc3O2)cc1 (stereo not given),active: 14.6 µM,–
Cc1ccc(C(=O)c2cc3c(cc2[N+](=O)[O-])OCCO3)cc1,"inconclusive [inhibitor, single point]",–
C/C(=N\NC(=O)c1csc(C)c1C)c1ccc(C)s1,active: 2.91 µM,–
COc1cc(OC)c(N(C)C(=O)c2cc3c(s2)-c2ccccc2OC3)cc1Cl,active: 23.1 µM,–
COc1ccc2c(CNCc3cccs3)c(C(=O)O)n(Cc3ccccc3C)c2c1,active: 2.91 µM,–
CN(C)CCn1c2c(c(SCC(=O)Nc3cccc4ccccc34)nc1=O)CCCC2,"inconclusive [inhibitor, single point]",–
COc1ccc(N(CC(=O)N2CCN(Cc3ccccc3)CC2)S(C)(=O)=O)cc1,inactive,–
O=C(NCCc1ccccc1)C(=O)c1c(-c2ccccc2)cc2ccccn12,"inconclusive [inhibitor, single point]",–
Cc1ccc(OCC(=O)N2CCN(C(=O)CCC3CCCC3)CC2)cc1,"inconclusive [inhibitor, single point]",–
O=C(COc1ccc(Cl)cc1)NNC(=O)CSc1nncs1,inactive,–
CCNC(=S)N/N=C/c1ccc(OCc2ccc(C(=O)OC)cc2)cc1,"inconclusive [inhibitor, full curve, poor fit]",–
CCCC(c1nnnn1CS(=O)(=O)c1ccc(C)cc1)N1CCN(c2ccccc2)CC1 (stereo not given),"inconclusive [inhibitor, partial curve, poor fit]",–
Cc1ccc(NC(=O)c2ccc([N+](=O)[O-])cc2)cc1S(=O)(=O)N(C)C,inactive,–
CC(=O)C1=C(C)NC(SCC(=O)c2ccc(F)cc2)=C(C#N)C1c1ccco1 (stereo not given),"inconclusive [inhibitor, single point]",–

Structure (SMILES),Potency,"activity change, negative = growth inhibition"
O=C(c1ccc(-c2ccccc2)cc1)N1CCCC1,inactive,–
O=[N+]([O-])c1ccc2c(c1)/C(=C/c1ccc(C=S)cc1)C=C2,"inconclusive [inhibitor, single point]",–
Cc1cc(C)nc(NC(=O)c2c(-c3ccccc3Cl)noc2C)c1,active: 20.6 µM,–
COc1ccccc1CC(=O)Nc1cc2oc3ccccc3c2cc1OC,active: 16.4 µM,–
COc1ccc(CNc2ncncc2-c2cccc(C#N)c2)c(OC)c1,"inconclusive [inhibitor, single point]",–
CCOc1cc(CNc2ccc(O)cc2)cc(Cl)c1OCc1ccccc1,active: 16.4 µM,–
O=C(Cn1c(O)c(/C=C2\C=Nc3ccccc32)sc1=O)N1CCOCC1,–,inconclusive: -31.2% [inhibitor]
COC(=O)c1c(NC(=O)c2ccccc2)sc(C(N)=O)c1C,"inconclusive [inhibitor, full curve]",–
CN(CC1CCOCC1)C(=O)CC1C(=O)NCCN1Cc1cccc(Oc2ccccc2)c1 (stereo not given),"inconclusive [inhibitor, single point]",–
CC(NC(=O)C(C)(C)C)C(c1cccs1)N1CCN(Cc2ccccc2)CC1 (stereo not given),"inconclusive [inhibitor, partial curve, poor fit]",–
Cc1ccc(C(=O)OCC(=O)NCc2ccccc2)s1,inactive,–
Cn1cccc1-c1cc2n(n1)CCC(=O)N2CC(=O)Nc1ccc(F)cc1Cl,inactive,–
Cc1ccc(C(=O)N2CCN(c3ccc(NC(=O)Cc4ccccc4)cc3)CC2)cc1,"inconclusive [inhibitor, single point]",–
NC(=O)c1ccsc1NC(=O)c1ccc(S(=O)(=O)N2CCCCC2)cc1,"inconclusive [inhibitor, single point]",–
COc1ccc(CNS(=O)(=O)c2ccc3c(c2)N(C)CCO3)cc1,"inconclusive [inhibitor, partial curve]",–
COCCCNc1nc2c(-c3cccc(Br)c3)nnn2c2ccccc12,–,inconclusive: -30.1% [inhibitor]
COc1ccc(OC)c(NC(=O)c2sc3ncnc(N4CCN(c5ccccn5)CC4)c3c2C)c1,active: 20.6 µM,–
Cc1ccc(NC(=O)C(C)Sc2n[nH]c(CNc3ccccc3)n2)cc1 (stereo not given),inactive,–
COc1ccc(/C=N/NC(=O)c2cccc(NC(=O)c3ccc(F)cc3)c2)c(C(=O)O)c1OC,inactive,–
O=C1COc2ccc(S(=O)(=O)Nc3ccc(OC(F)(F)F)cc3)cc2N1,inactive,–
COc1ccc(-c2ccc(SCC(=O)Nc3nccs3)nn2)cc1OC,"inconclusive [inhibitor, single point]",–
OCCCc1nc2n(n1)C(c1ccccc1)C=C(c1ccc(F)cc1)N2 (stereo not given),inactive,–
Cn1nc(-c2ccccc2F)c2cc(C(=O)N3CCN(c4ccccc4F)CC3)sc21,active: 7.31 µM,–
Cc1c(NC(=O)Cc2ccccc2)cccc1-c1nc2cccnc2s1,"inconclusive [inhibitor, single point]",–

Structure (SMILES),Potency,"activity change, negative = growth inhibition"
CCOC(=O)c1c(C)[nH]c(C)c1S(=O)(=O)N1CCC(C(=O)NCc2ccc(OC)cc2)CC1,inactive,–
CCOC(=O)C1(Cc2cccc(F)c2)CCN(C(=O)c2cscn2)CC1,"inconclusive [inhibitor, single point]",–
O=C1C(=C(c2ccccc2)N2CCOCC2)Cc2ccccc21,active: 0.82 µM,–
CCOc1ccc(CN2CCCC(N3CCN(c4ccc(OC)cc4)CC3)C2)cc1 (stereo not given),"inconclusive [inhibitor, single point]",–
COC(=O)c1ccc2c(=O)n(CCCCCC(=O)N3CCN(c4cccc(C)c4C)CC3)c(=O)[nH]c2c1,"inconclusive [inhibitor, single point]",–
CCS(=O)(=O)N1CCc2cc(C(=O)NCc3ccc(C)cc3)ccc21,"inconclusive [inhibitor, single point]",–
O=C(c1ccc([N+](=O)[O-])cc1)N1CCc2ccccc21,inactive,–
COc1ccc(-n2c(=O)/c(=C\c3cccs3)s/c2=C(/C#N)C(=O)NCCN2CCOCC2)cc1,"inconclusive [inhibitor, single point]",–
COc1ccc(C)cc1S(=O)(=O)N(CC(=O)Nc1cc([N+](=O)[O-])ccc1C)c1ccc(C)c(C)c1,active: 10.3 µM,–
CCOc1ccc(NC(=O)CN2CCN(c3ccc(F)cc3)CC2)cc1S(=O)(=O)N1CCCC1,"inconclusive [inhibitor, single point]",–
Cc1ccc(CSCc2ccc(C(=O)NCCC(C)C)o2)cc1,"inconclusive [inhibitor, single point]",–
CCN(CC)C(=O)Cn1cc(C(=O)C(=O)Nc2ccc3c(c2)OCO3)c2ccccc21,"inconclusive [inhibitor, single point]",–
O=C(c1cccc2c1-c1ccccc1C2)N1CCCCC1,–,inconclusive: -36.3% [inhibitor]
O=C(NCc1ccccc1)C(c1cccc2ccccc12)n1c(=O)c(-c2ccco2)nc2ccccc21 (stereo not given),"inconclusive [inhibitor, partial curve]",–
COC(=O)C(=Cc1ccncc1)c1cccc2ccccc12,active: 13 µM,–
COc1ccccc1CN1CCNC(=O)C1CC(=O)NCCc1cnccn1 (stereo not given),inactive,–
COc1cc(NCCCCCCN)c2ncccc2c1OC,"inconclusive [inhibitor, single point]",–
Cc1cc(C)c(C)c(S(=O)(=O)Nc2ccc(C(N)=O)cc2)c1C,–,inconclusive: -31.9% [inhibitor]
O=C(O)c1cnn(-c2nc(-c3cccc([N+](=O)[O-])c3)cs2)c1C(F)(F)F,inactive,–
CCOC(=O)C1(Cc2ccccc2C)CCCN(C(=O)c2ccc3nccnc3c2)C1 (stereo not given),active: 20.6 µM,–
CCOCCOC(=O)C1=C(C)NC(=O)NC1c1cc2c(cc1Br)OCO2 (stereo not given),inactive,–
CCC(Cn1nnc2ccccc2c1=O)NC(=O)Nc1ccccc1Cl (stereo not given),–,inconclusive: -30.6% [inhibitor]
